Laboratory results reported in paper PMC7819943, “Rice protein-binding microarrays: a tool to detect cis-acting elements near promoter regions in rice”.
The list shows a part of the results.

Each sequence was assayed against T1, OsWOX13 (Oryza sativa, UniProt Q5QMM3 1-267) (assay: protein-binding microarray (RPBM); PBS, 2% BSA, 51.3 ng/ul salmon testes DNA, 50 uM zinc acetate, 200 nM TF, 25 C, 1 h; high values mean tight binding). Settings: protein: recombinant; tags: N-terminal polyhistidine and DsRed monomer fusion (pET32a); label: CyDye5-dUTP incorporated in the synthesized complementary strand; 3' TTTTT single-stranded linker to array surface; dsDNA, one strand shown.
T1 sequence: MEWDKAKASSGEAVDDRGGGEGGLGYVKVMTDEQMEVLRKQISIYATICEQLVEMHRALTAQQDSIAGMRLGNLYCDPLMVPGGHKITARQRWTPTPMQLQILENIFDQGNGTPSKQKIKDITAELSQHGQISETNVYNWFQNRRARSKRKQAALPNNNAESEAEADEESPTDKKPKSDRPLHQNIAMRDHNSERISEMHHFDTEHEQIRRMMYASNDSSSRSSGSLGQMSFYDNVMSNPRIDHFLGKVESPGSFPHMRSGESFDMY
How it was run: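 Binding signal is defined as the fluorescence intensity of each feature in arbitrary units, read on an Axon 4000B scanner. Transcription factors with N-terminal polyhistidine and DsRed fusions came from E. coli BL21-CodonPlus and were purified on Ni–NTA. They were incubated at 200 nM for 1 h at 25 °C on a custom Agilent array that had been made double-stranded with Cy5-dUTP, with 50 µM zinc acetate present, and the array was washed.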

Sequence	binding signal
AAAGTTAACTTGATCAAACTTGCTTAACATAAGATGTGATCGGAGTCACCTAGTGCAG	4350 fluorescence intensity (a.u.)
ATGATAGATCAATTTGTTAAAATATTATGCAAATAATGTGCGGAGTCACCTAGTGCAG	22800 fluorescence intensity (a.u.)
ATAATAATAGATTCCGTTTCGACAGTAACATTTCCGATATCGGAGTCACCTAGTGCAG	3560 fluorescence intensity (a.u.)
AGTGATTTCACCTATCCTGTCAACTATCAAATGCGATTGCCGGAGTCACCTAGTGCAG	6690 fluorescence intensity (a.u.)
CTCCCTTGATATCTAGCTCATGATTGAATCGTCTTCCTCACGGAGTCACCTAGTGCAG	12200 fluorescence intensity (a.u.)
AATCATGTAATTGAAAATTTGGTAAAATACTCCGTAATGACGGAGTCACCTAGTGCAG	24200 fluorescence intensity (a.u.)
ATGTTGATTAGCAAATGCACTGCCATGTATGGAACCGACCCGGAGTCACCTAGTGCAG	41200 fluorescence intensity (a.u.)
GTGGACGAGATTGTCACTCACCTGATTTTGAAGTTAGTTACGGAGTCACCTAGTGCAG	11000 fluorescence intensity (a.u.)
AACACAGTTTATTCTTGTTAATTGATTAGCTCAATGTGTCCGGAGTCACCTAGTGCAG	39600 fluorescence intensity (a.u.)
GAGACATCAGCAAATTAAACAGCAACAGAGACATAACCATCGGAGTCACCTAGTGCAG	3160 fluorescence intensity (a.u.)
ACTTGCCCTTAATTAACCTCCGAATATGCAGCTTCAGCTTCGGAGTCACCTAGTGCAG	5640 fluorescence intensity (a.u.)
TTTAAACTGGTGAGACGTGAGAGCCTGGCTGCGTGGGGCTCGGAGTCACCTAGTGCAG	4530 fluorescence intensity (a.u.)
ATGTTGGTTAATTAGTTTAATTTTGGGCAACCAACATTAGCGGAGTCACCTAGTGCAG	25600 fluorescence intensity (a.u.)
TAGTTAATACTCAATTAATCATGAGCTAATGGCTCACCTCCGGAGTCACCTAGTGCAG	14200 fluorescence intensity (a.u.)
GTTTAATTAGCTAGCACCTGTCGCCATTGCCATGCCTCCCCGGAGTCACCTAGTGCAG	37100 fluorescence intensity (a.u.)
ATAACTAATAAATGATTGAATTAGATGAATAGGTAGTTTCCGGAGTCACCTAGTGCAG	31000 fluorescence intensity (a.u.)
AGAATGGTGATTAACTATTGGTGTTAATTAATTTGCTGCACGGAGTCACCTAGTGCAG	31000 fluorescence intensity (a.u.)
TGATTGATGGTTTTAAATATTATATTCCTTACTATTAAATCGGAGTCACCTAGTGCAG	5770 fluorescence intensity (a.u.)
CCGACTAATAATTTTGTTTGTGGCAATCAAGCTGCTATCTCGGAGTCACCTAGTGCAG	12700 fluorescence intensity (a.u.)
CAATAATTTCTTAAACAGCCCACAATTAATTTATCAAGCACGGAGTCACCTAGTGCAG	31200 fluorescence intensity (a.u.)
CACATTAATCAGCGCATCAGTTCCAGTCGTCGCCTAAATTCGGAGTCACCTAGTGCAG	4530 fluorescence intensity (a.u.)
TATATTTGATAGGTATAAAGGTGCAGTATCTTACATATGGCGGAGTCACCTAGTGCAG	7520 fluorescence intensity (a.u.)
CCGGGTGATTGGCATGAATCTGAATGGCTGAATCCTGATGCGGAGTCACCTAGTGCAG	53400 fluorescence intensity (a.u.)
AACCATGTTTGACTCAACATAATTAGTGCGACAAACCGCACGGAGTCACCTAGTGCAG	4590 fluorescence intensity (a.u.)
AACCTGATTTGCATGAACCAAATTTACAGAGTAGTAGTCACGGAGTCACCTAGTGCAG	29000 fluorescence intensity (a.u.)
AAAACCATCATCAATCAGCCGATCCTGATGTTGTCCCTGCCGGAGTCACCTAGTGCAG	25100 fluorescence intensity (a.u.)
AGTTGATTGGTAAAGTGACATGCTTGAACACTGTTGGAGCCGGAGTCACCTAGTGCAG	54000 fluorescence intensity (a.u.)

Sequence	binding signal
GCTCTCTCTATTCTGTTTGCAATCCTCTTCACCCTAATTTCGGAGTCACCTAGTGCAG	4300 fluorescence intensity (a.u.)
CTGGGTGATTAAAATCTCTCTCCGTCTCATTCATCACTAACGGAGTCACCTAGTGCAG	12300 fluorescence intensity (a.u.)
GCAGATTTTACTTGATAGCATTATCTAAGATAGCCAATTGCGGAGTCACCTAGTGCAG	7460 fluorescence intensity (a.u.)
AAAGAAAATTATATCTTAATTACCGTCATTATATATCTACCGGAGTCACCTAGTGCAG	15200 fluorescence intensity (a.u.)
TGACAAGTGATTGCGGTGAAGCTCAATAGTATTCAGTGATCGGAGTCACCTAGTGCAG	15400 fluorescence intensity (a.u.)
CACTGGCAAATCCTAATTGATGGATCAGAGCCAAGCATGTCGGAGTCACCTAGTGCAG	31200 fluorescence intensity (a.u.)
ACTAAATTATAGTCACATACACAAGTCAACAGTTCAATTTCGGAGTCACCTAGTGCAG	13900 fluorescence intensity (a.u.)
TCGTGATAATATACTCCTGACAATATAAGATTGCTGCTGGCGGAGTCACCTAGTGCAG	3280 fluorescence intensity (a.u.)
CCTTATTTGACGGATCGATCGAATCAATCGTGCCCAGCAGCGGAGTCACCTAGTGCAG	3300 fluorescence intensity (a.u.)
TGCTGAAATGATTGCTTGCTTGGAAGATGATCATTTTGGTCGGAGTCACCTAGTGCAG	36600 fluorescence intensity (a.u.)
AATGTTATAATTGATTGGGCCTTCTTTGTAGCTTCTTCTACGGAGTCACCTAGTGCAG	33000 fluorescence intensity (a.u.)
GATAACTCCAAATGATAGGCTGAGAGGTGTTGTGACACTTCGGAGTCACCTAGTGCAG	6630 fluorescence intensity (a.u.)
TATGGTCTAACATATGATTGCAAATGTCCAACTGTAGGTCCGGAGTCACCTAGTGCAG	4050 fluorescence intensity (a.u.)
AAACTCAATTGACAGCCCAGTTGCTTTGCCTCCCCGAAACCGGAGTCACCTAGTGCAG	4860 fluorescence intensity (a.u.)
TGTTGATAGGCAAGTTTACGCTGAACTTTTGGGTTGCGTGCGGAGTCACCTAGTGCAG	26000 fluorescence intensity (a.u.)
ACACGGCGAGATTGAAATTGTATTGTGTGGCTTGCCTAGACGGAGTCACCTAGTGCAG	12000 fluorescence intensity (a.u.)
TGATATATAATTGTGACACCCAATCATCTCTGCTTTGGTCCGGAGTCACCTAGTGCAG	12100 fluorescence intensity (a.u.)
ATGAATAATTAACCTCCGAATCAAAGGGAGGGCCGACTGCCGGAGTCACCTAGTGCAG	7080 fluorescence intensity (a.u.)
CTATCTTAATTATAGATAGAGAGATAGATAGATATATTTGCGGAGTCACCTAGTGCAG	34300 fluorescence intensity (a.u.)
TTAATTTAAATCTTGCTCCAGTTTTGCACCTTATTTGACACGGAGTCACCTAGTGCAG	11100 fluorescence intensity (a.u.)
GAGAACTCTAATGAATTAGATTATATTCATGCTTGTTGATCGGAGTCACCTAGTGCAG	5820 fluorescence intensity (a.u.)
TTATACGATTAGTCAATTAAACTATTAATTTTGTCACCAACGGAGTCACCTAGTGCAG	21000 fluorescence intensity (a.u.)
GTTGCGGGGTGGGTGGTGGCGTTGCGGGAGGAGGAGGGAGCGGAGTCACCTAGTGCAG	12700 fluorescence intensity (a.u.)
GAGATTGAATGACACTGAATGAATATTATTGTCGAATGATCGGAGTCACCTAGTGCAG	47700 fluorescence intensity (a.u.)
TGGATAAATTATTCATACTAATTACATCGTACTTACACTACGGAGTCACCTAGTGCAG	9120 fluorescence intensity (a.u.)
GTCCTCTTTCAATTATATAATATGTTACTTTTGATCACAACGGAGTCACCTAGTGCAG	13300 fluorescence intensity (a.u.)
GCATCCCAATCAAACATTTCTCAATCCAAACTTAAACTAGCGGAGTCACCTAGTGCAG	5840 fluorescence intensity (a.u.)
